About 2,200 (0.71%) of roughly 310,000 compounds showed an effect of 50% or more. The effect is printed as a negative number. This is one part of the list.
These molecules were tested against human ether-à-go-go-related gene (hERG) potassium channel (human, UniProt Q12809) (assay: primary screen, population patch clamp on CHO cells stably expressing hERG).
Chain of human ether-à-go-go-related gene (hERG) potassium channel (Q12809 whole entry, looked up): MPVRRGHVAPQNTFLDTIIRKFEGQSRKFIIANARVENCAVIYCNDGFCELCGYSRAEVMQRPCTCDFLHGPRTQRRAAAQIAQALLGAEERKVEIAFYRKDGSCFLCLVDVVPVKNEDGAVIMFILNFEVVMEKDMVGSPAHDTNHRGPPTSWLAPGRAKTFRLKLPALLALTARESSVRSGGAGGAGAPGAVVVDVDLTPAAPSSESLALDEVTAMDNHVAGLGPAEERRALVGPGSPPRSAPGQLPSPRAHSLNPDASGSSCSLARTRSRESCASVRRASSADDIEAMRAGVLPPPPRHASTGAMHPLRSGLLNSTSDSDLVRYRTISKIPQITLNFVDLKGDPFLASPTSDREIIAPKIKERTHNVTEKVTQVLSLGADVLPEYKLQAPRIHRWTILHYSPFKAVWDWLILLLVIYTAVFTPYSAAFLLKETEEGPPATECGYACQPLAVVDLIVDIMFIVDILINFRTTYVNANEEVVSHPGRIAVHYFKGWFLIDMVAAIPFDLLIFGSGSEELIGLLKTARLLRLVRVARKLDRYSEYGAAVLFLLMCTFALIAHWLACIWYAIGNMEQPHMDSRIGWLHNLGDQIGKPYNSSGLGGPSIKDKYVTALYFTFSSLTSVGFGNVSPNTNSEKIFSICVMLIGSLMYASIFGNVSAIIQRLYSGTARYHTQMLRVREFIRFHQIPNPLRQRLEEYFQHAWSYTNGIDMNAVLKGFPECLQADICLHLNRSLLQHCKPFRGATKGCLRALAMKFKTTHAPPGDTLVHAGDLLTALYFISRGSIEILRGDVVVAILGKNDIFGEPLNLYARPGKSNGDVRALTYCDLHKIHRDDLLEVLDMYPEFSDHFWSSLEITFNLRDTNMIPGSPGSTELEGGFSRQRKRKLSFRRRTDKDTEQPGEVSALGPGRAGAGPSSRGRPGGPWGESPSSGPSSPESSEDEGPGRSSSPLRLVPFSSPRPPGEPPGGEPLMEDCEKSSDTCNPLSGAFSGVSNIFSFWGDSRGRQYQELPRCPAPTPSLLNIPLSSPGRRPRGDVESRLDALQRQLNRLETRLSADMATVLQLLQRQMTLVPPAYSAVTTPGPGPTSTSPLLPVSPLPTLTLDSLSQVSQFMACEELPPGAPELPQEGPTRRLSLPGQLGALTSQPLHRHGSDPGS

Compound | hERG current change (%, negative = inhibition) at 1uM [%]
COc1cccc(CN2CC(C(=O)NCCCc3ccncc3)CCC2=O)c1 (centres unmarked) | 21.4
Cc1ccc(C)c(NC(=O)CSc2nnc(-c3ccco3)o2)c1 | 3.71
CC1CCN(C(=O)c2ccccc2NC(=O)Nc2ccccc2)CC1 | -0.689
CCC(C)(C)n1nnnc1C(c1ccncc1)N1CCC(C)CC1 (centres unmarked) | -0.168
CC(=O)c1ccc(-c2ccc(C(=O)N(C)c3c(N)n(Cc4ccccc4)c(=O)[nH]c3=O)o2)cc1 | -2.54
CC(C)NS(=O)(=O)c1ccc(OCC(=O)N2CCN(Cc3ccccc3)CC2)c(Cl)c1 | 9.36
CC(C)(C)C1CCC2(CC1)SCC(=O)N2c1ccccc1 (centres unmarked) | 16.8
CC(C)N1CCc2c(sc(NC(=O)c3ccc(S(=O)(=O)N4CCOCC4)cc3)c2C(N)=O)C1 | 2.73
COc1ccc(C(=O)N/C(=C\c2cn(C)c3ccccc23)C(=O)N2CCOCC2)cc1OC | 18.8
CCC1(c2ccccc2)NC(=O)N(CC(=O)Nc2ccccc2C(=O)NC2CC2)C1=O (centres unmarked) | 9.37
CN(C)N1C(=O)CC(N2CCCC2)C1=O.Cl (centres unmarked) | 7.98
COc1cc(NC(=O)CCC(=O)c2cccs2)cc(OC)c1 | 9.44
CC(C)(C)SCCNC(=O)c1ccc(CN2CCc3ccccc3C2)cc1 | 13.2
CS(=O)(=O)N(CC(=O)NCc1ccccc1Cl)c1cccc([N+](=O)[O-])c1 | -0.378
O=C(NCc1ccco1)/C(=C/c1ccccc1)NC(=O)c1ccco1 | 10.1
COc1ccc(C(CC(=O)O)NC(=O)COc2cc(C)ccc2C)cc1OC (centres unmarked) | 11.4
Cc1cc(C(=O)N2CCN(Cc3ccc4c(c3)OCO4)CC2)on1 | 6.09
Cc1ccc(CC(=O)NC2CCCc3ccccc32)cc1C (centres unmarked) | -6.48
CCN(CC(=O)Nc1ccc2c(c1)OCCO2)Cc1nc2cc(Cl)ccc2c(=O)[nH]1 | 7.69
COCCn1cc(C(=O)NCCN(C)C)c2c3ccccc3n(C)c2c1=O | 11.7
O=C(OCCOCCN=C1NS(=O)(=O)c2ccccc21)c1ccccc1Br | 8.71
Cc1ccc2c(c1)N(S(=O)(=O)c1ccc(CN3C(=O)c4cccnc4C3=O)cc1)CCO2 | 15.9

Compound | hERG current change (%, negative = inhibition) at 1uM [%]
CN(Cc1ccc2nonc2c1)Cc1nc(Cc2cccc(F)c2)no1 | 10.2
CCCCC1CC(CSc2ncn[nH]2)OC1=O (centres unmarked) | 10.2
Cc1c(CC(=O)N[C@@H](C)C(=O)O)c(=O)oc2cc3c(cc12)CCC(C)(C)O3 | 14.2
Cc1ccccc1CNC(=O)c1ccc(CSCc2ccccc2)cc1 | 12.7
CCn1c(=O)n(CCOC)c(=O)c2c3c(sc21)CCCC3 | -6.15
Cc1sc2ncnc(N3CCC(C)CC3)c2c1C | 9.71
Cc1ccc(SC(C)C(=O)NCc2ccncc2)cc1 (centres unmarked) | 5.75
CN(C(=O)C1CCC(CNS(=O)(=O)c2cccc3cccnc23)CC1)C1CCCCC1 (centres unmarked) | 8.2
COc1ccc2oc(C(=O)c3ccccc3)c(N)c2c1 | 7.89
Cc1ccccc1NS(=O)(=O)c1nnc(NC(=O)c2ccccc2C)s1 | -15.6
COc1cccc(OCC(O)CN2CCN(C)CC2)c1.O=C(O)C(=O)O (centres unmarked) | 15.3
CC1(C)Cc2c(c(-c3ccco3)nc3sc4c(NCC5CCCO5)ncnc4c23)CO1 (centres unmarked) | 16.5
Cc1cnc(C(=O)Nc2ccc(C(C)C)cc2)cn1 | 8.65
O=C(CCCc1nc(-c2ccccc2)no1)NC1CCCC1 | 8.49
COc1ccc(CN(C)c2ncnc(N)n2)cc1 | 12.9
COc1ccccc1N(Cc1cc2cccc(C)c2[nH]c1=O)C(=O)C(C)C | 9.48
CCOc1ccccc1-c1nc(C(N)=O)c2[nH]c(=O)n(-c3ccc(F)cc3)c2n1 | -4.73
CCN(CC)C(=O)c1cc([N+](=O)[O-])cc2c1-c1ccc([N+](=O)[O-])cc1C2=C(C#N)C#N | 4.68
O=C(NCc1ccccc1)c1csc2c1CCCCC2 | 13.4
CCn1c(SCC(=O)Nc2cc3oc4ccccc4c3cc2OC)nnc1-c1cccs1 | 9.72
O=C(Nc1ccc(S(=O)(=O)Nc2nccs2)cc1)C1CC(=O)N(c2ccc(Cl)cc2)C1 (centres unmarked) | 15.9
O=c1c(Cl)c(N/N=C/c2ccc(Br)cc2)cnn1-c1ccccc1 | 11.3

Compound | hERG current change (%, negative = inhibition) at 1uM [%]
COc1cc(C)ccc1S(=O)(=O)NC1CC(C)(C)NC(C)(C)C1 | 6.5
CC(=O)OCc1c(C(F)(F)F)nn(C)c1Oc1cccc(C(F)(F)F)c1 | -1.36
CC1(c2ccc3ccccc3c2)NC(=O)N(CC(=O)N2CCC(C(N)=O)CC2)C1=O (centres unmarked) | 10.9
O=C(NCCc1ccccc1F)C1CCCN1S(=O)(=O)c1ccccc1 (centres unmarked) | -6.4
O=C(Oc1csc(=S)n1C(=O)c1ccccc1)c1ccccc1 | 7.91
O=[N+]([O-])c1cc(-c2cnc3ccccc3n2)ccc1Oc1ccc(Cl)cc1 | 3.25
CC1(C)Oc2ccccc2OC1(O)c1ccc2ccccc2n1 (centres unmarked) | 14.2
CC(=O)N(c1cccc(C)c1)C1SC(=O)N(c2ccccc2)C1=O (centres unmarked) | 8.87
Cc1ccc(OCC(=O)N(C)Cc2ccccc2)c([N+](=O)[O-])n1 | -3.91
O=C(c1ccco1)N1CCN(C(c2ccccc2)c2nnnn2Cc2cccs2)CC1 (centres unmarked) | -3
Cn1cccc1Cc1nnc(SCC(=O)NCc2ccc(F)cc2)n1-c1ccc(F)cc1 | -11
Cn1c(=O)n(C)c2cc(/C=C3/NC(=O)N(Cc4ccccc4)C3=O)ccc21 | 8.11
COc1ccc(N(CC(=O)Nc2c(C)n(C)n(-c3ccccc3)c2=O)S(=O)(=O)c2ccccc2)cc1OC | 2.19
O=[N+]([O-])c1ccc(/C=N/Nc2nc(N3CCCCC3)nc(N3CCCCC3)n2)o1 | 10.8
Cc1cccc(C(=O)N[C@H](C(=O)Nc2ncc(C)s2)C(C)C)c1 | 18.7
CN(CC(=O)NCc1ccccc1Cl)CC(=O)Nc1ccccc1Br | 4.04
O=C1NC(=O)N(c2ccccc2)C(=O)/C1=C/c1ccc([N+](=O)[O-])s1 | 9.71
Oc1c(C(Nc2cccc(C(F)(F)F)c2)c2cccnc2)ccc2cccnc12 (centres unmarked) | 13.6
O=P(O)(O)O.c1ccc(CSCCc2ccncc2)cc1 | 5.33
COc1ccccc1C(=O)C1CCCN(C(=O)c2ccccc2Cl)C1 (centres unmarked) | 15.7
O=c1c2ccccc2[nH]c(=S)n1-c1cccnc1 | 10.6
CCc1ccc2[nH]c(=O)c(CN(CCN(CC)CC)C(=S)NCc3ccco3)cc2c1 | -15.2

Compound | hERG current change (%, negative = inhibition) at 1uM [%]
CCCCC(=O)Nc1ccc2c(c1)nc(CCN1CCN(c3ccccn3)CC1)n2C | -15.3
CCc1cc2c(=O)c(-c3ccc(F)cc3)c(C)oc2cc1OCC(=O)O | 16.4
O=C(CNC(=O)c1ccc(Br)cc1)Nc1ccc(Br)cc1C(=O)c1ccccc1 | 14.3
Cc1cc(C)c(OCC(=O)Nc2ccc(S(=O)(=O)N3CCOCC3)cc2)c(C)c1 | 10.5
Cl.Nc1nc2cc3ccccc3cc2[nH]c1=O | 10.9
CCOc1ccc(NC(=O)CS(=O)(=O)c2cn(CC)c3ccccc23)cc1 | 17
COc1cc(CNCCO)ccc1OCCc1ccccc1 | 9.58
NC(N)=NS(=O)(=O)c1ccc(N=C2C(=O)Nc3ccccc32)cc1 | -11.4
CC(O)CN1CC(O)=C(c2nc3ccccc3s2)C1=N (centres unmarked) | 13.1
CCc1nnc(NC(=O)c2ccc(S(=O)(=O)N3CCN(Cc4ccccc4)CC3)cc2)s1 | 12.2
Cc1cc(Cl)c2oc(C(=O)N(C)C3CCOC3)c(C)c2c1 (centres unmarked) | 10
CC1(C(=O)NCCCNc2ncc(C(F)(F)F)cc2Cl)C=CCN1C(=O)c1ccccc1 (centres unmarked) | -7.46
COc1ccc(/C=C2\N=C(c3ccc(C)cc3)OC2=O)cc1 | 14
CCOc1ccc(NC(=O)c2ccc(-n3cccn3)nc2)cc1 | 16
CN(CC(=O)Nc1c(Cl)cccc1Cl)C(=O)CNC(=O)c1ccco1 | 8.71
C[C@H](NC(=O)c1ccccc1Cl)C(=O)OC(C(=O)Nc1cc(C(F)(F)F)ccc1Cl)c1ccccc1 (some centres unmarked) | 16
CCCSc1nsc(NC(=O)Nc2ccc(F)cc2F)n1 | 13.6
COC(=O)c1ccc(C2/C(=C(\O)c3ccc4c(c3)OCCO4)C(=O)C(=O)N2CCCN2CCOCC2)cc1 (centres unmarked) | 15
COc1ccc(NC(=O)CC(C)n2ccnc2)cc1 (centres unmarked) | 8.97
O=C(Cc1cccs1)Nc1nnc(SCC(=O)NC2CCCCC2)s1 | 12.2
